Assay [1] deals with T1, HA-ASCT2, wild type (UniProt Q15758).
T1 sequence: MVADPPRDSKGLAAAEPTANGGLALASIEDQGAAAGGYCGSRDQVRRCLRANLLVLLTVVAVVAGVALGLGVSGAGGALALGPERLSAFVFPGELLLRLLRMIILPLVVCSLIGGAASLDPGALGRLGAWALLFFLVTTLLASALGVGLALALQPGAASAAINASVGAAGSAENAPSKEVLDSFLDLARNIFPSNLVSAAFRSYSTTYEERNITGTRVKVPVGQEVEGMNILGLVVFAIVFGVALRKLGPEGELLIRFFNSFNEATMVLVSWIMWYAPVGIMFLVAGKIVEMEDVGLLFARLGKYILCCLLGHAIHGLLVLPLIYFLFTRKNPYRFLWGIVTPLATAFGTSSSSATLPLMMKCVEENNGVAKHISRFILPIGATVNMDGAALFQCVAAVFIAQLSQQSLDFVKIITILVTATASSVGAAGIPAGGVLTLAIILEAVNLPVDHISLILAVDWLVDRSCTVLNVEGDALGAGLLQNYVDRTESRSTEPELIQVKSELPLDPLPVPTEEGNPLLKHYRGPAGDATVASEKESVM
Kind of assay: co-IP; HEK293 cells transfected with plasmids; IP lysis buffer (50 mM Tris-HCl pH 8.0, 120 mM NaCl, 0.5% NP40, 1 mM EDTA); HA antibody overnight at 4 °C; immunoblot.

By UniProt entry, the sequences of proteins in these tests, tags left out. Where a name states a change or a piece, a line headed by the entry shows the natural chain unless it says otherwise.
UniProt O43791: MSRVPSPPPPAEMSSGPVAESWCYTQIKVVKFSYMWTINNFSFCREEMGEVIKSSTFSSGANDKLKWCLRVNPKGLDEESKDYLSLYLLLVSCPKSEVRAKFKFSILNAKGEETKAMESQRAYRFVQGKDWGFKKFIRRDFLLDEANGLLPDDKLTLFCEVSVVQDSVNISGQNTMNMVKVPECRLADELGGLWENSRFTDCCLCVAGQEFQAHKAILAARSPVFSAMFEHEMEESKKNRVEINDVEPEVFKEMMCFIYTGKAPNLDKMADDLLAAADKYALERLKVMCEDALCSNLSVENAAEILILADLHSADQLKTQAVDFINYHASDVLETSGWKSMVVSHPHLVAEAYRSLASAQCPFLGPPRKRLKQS
UniProt P48730: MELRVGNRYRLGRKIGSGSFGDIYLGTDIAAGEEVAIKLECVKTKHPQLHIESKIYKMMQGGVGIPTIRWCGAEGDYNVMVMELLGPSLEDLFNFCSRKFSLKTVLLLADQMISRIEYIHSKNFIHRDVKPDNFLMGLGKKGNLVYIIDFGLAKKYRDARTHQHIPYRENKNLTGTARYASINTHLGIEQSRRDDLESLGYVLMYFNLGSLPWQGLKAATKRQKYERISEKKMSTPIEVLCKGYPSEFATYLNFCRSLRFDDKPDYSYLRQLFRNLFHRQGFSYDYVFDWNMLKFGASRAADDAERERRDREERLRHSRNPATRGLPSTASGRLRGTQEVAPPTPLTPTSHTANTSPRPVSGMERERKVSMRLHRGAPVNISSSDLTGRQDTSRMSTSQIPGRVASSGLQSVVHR
UniProt P48729: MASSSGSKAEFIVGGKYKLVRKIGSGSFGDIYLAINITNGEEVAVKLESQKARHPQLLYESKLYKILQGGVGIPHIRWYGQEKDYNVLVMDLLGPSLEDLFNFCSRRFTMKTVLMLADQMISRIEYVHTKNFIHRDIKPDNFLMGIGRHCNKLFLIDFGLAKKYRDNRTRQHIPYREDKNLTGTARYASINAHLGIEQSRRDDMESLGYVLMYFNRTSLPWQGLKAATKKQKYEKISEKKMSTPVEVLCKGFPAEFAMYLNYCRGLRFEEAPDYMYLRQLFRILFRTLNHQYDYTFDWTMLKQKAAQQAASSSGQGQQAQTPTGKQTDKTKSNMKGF
UniProt P49674: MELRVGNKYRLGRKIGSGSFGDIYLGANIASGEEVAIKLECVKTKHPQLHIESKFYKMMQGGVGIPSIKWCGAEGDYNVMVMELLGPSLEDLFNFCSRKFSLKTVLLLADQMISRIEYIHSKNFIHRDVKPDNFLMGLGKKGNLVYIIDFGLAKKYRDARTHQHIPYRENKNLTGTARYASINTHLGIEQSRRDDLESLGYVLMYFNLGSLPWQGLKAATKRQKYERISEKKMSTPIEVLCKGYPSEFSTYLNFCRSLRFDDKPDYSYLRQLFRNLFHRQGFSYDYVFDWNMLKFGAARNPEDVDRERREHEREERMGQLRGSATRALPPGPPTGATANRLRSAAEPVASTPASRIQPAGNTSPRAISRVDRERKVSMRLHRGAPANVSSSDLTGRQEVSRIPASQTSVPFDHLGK
UniProt Q9UKT5: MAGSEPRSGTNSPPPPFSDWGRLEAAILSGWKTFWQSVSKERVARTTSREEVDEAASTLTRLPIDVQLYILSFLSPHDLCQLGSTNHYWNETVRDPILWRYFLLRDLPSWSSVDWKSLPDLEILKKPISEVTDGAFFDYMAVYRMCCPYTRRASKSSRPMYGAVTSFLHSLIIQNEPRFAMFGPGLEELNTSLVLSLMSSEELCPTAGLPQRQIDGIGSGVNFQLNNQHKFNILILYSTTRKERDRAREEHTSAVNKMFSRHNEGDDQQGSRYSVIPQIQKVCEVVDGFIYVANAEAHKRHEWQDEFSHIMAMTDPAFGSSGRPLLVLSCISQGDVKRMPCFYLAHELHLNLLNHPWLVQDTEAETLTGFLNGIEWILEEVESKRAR
UniProt Q13309: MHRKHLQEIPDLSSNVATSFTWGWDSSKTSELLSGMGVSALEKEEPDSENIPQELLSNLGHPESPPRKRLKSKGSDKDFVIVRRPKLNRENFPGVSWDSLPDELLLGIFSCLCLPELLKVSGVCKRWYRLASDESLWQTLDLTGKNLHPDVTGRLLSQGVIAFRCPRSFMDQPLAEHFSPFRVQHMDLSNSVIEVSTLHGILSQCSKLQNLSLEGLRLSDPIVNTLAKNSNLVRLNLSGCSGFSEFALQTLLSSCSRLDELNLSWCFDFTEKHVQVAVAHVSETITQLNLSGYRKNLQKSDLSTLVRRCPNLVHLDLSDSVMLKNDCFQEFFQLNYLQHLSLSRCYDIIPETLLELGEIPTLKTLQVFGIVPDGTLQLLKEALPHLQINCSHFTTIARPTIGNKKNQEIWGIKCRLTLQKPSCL
UniProt P25098: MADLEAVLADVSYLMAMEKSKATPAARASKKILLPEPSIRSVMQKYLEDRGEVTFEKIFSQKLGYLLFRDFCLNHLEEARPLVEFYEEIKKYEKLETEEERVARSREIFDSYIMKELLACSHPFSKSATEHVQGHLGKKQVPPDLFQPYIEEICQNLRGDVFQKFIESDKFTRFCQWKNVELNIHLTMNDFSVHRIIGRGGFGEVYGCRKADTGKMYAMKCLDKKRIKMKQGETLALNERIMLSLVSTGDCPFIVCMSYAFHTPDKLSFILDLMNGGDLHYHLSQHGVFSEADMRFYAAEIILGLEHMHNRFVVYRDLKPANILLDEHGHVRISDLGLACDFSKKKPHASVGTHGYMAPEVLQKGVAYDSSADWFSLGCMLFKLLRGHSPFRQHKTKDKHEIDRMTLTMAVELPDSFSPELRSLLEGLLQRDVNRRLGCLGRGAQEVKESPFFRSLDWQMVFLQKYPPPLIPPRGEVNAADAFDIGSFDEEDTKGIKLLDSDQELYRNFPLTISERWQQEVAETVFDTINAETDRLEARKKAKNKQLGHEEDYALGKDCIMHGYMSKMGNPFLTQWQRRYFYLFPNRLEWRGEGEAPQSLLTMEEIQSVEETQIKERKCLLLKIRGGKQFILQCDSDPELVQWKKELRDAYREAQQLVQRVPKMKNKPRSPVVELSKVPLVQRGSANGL

Assay [2] addresses FLAG-SPOP S222D (UniProt O43791). Kind of assay: co-IP; SPOP dimerisation: HEK293 cells transfected with the indicated SPOP plasmids, cultured in glutamine-containing or glutamine-free media (for the S222 mutants after siRNA to the SPOP 3′-UTR, glutamine-free medium 12 h); FLAG-agarose beads; immunoblot. In general terms: A western blot detects proteins with antibodies after separation by electrophoresis.

Assay [3] addresses FLAG-SPOP S222A (UniProt O43791). Described as above.
Assay [4] has as its target Speckle-type POZ protein (SPOP), endogenous (human (endogenous in SK-BR-3)) (UniProt O43791). Description: co-IP; endogenous proteins; SK-BR-3 cell lysate precipitated with anti-SPOP antibody, associated protein detected by immunoblot; glutamine deprivation also tested (Supplementary Fig. 6h, i).
Assay [5] addresses CK1δ, endogenous (human (endogenous in SUM159)) (UniProt P48730). Kind of assay: co-IP; endogenous proteins; SUM159 cell lysate precipitated with anti-CK1δ antibody, associated ASCT2 detected by immunoblot.
Assay [6] addresses Speckle-type POZ protein (SPOP), endogenous (human (endogenous in SK-BR-3)) (UniProt O43791). Description: co-IP; endogenous proteins; SK-BR-3 cell lysate precipitated with anti-SPOP antibody, associated protein detected by immunoblot; glutamine deprivation also tested (Supplementary Fig. 6h, i). This is another data set of the same source.
For assay [7], the target named is FLAG-CK1α (UniProt P48729). Kind of assay: co-IP; HEK293 cells transfected with plasmids; IP lysis buffer (50 mM Tris-HCl pH 8.0, 120 mM NaCl, 0.5% NP40, 1 mM EDTA); FLAG-agarose beads overnight at 4 °C; immunoblot.
The target of assay [8] is FLAG-CK1δ (UniProt P48730). The assay is described as above.
Assay [9] deals with FLAG-SPOP E78K (UniProt O43791). The assay is described as above.
Assay [10] deals with FLAG-CK1ε (UniProt P49674). The description is as above.
Assay [11] deals with FLAG-SPOP, wild type (UniProt O43791). The assay is described as above.
Assay [12] deals with FBXO4 (UniProt Q9UKT5). Description: pull-down; Supplementary Fig. 2c, legend not shown; nine F-box proteins tested for pulling down ASCT2.
Assay [13] concerns the target SKP2 (UniProt Q13309). The assay is described as above.
Assay [14] addresses T2, FBXL7 (UniProt Q9UJT9).
T2 sequence: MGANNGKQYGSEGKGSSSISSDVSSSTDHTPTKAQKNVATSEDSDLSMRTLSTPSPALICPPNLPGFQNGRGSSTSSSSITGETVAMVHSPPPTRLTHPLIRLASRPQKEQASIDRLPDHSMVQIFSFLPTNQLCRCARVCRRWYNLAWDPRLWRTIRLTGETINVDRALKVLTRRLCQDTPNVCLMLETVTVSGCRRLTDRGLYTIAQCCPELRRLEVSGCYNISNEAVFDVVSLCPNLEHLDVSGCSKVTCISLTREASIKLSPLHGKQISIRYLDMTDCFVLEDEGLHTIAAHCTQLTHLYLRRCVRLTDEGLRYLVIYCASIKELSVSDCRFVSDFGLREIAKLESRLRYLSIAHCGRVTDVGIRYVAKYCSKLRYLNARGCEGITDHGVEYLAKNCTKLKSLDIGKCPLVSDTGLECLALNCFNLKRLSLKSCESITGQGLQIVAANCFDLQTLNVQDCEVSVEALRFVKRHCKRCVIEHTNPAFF
The description is as above.

In assay [15] the target is FLAG-SPOP, wild type (UniProt O43791). Description: condition: only cells treated with the CK1 inhibitor D4476 for 12 h; co-IP; HEK293 cells transfected with FLAG-SPOP and HA-ASCT2 and treated with the CK1 inhibitor D4476 for 12 h before harvesting; FLAG-agarose beads; immunoblot.

Numbering of substitutions follows the chain as printed. Like-named read-outs stand apart in the source and are kept apart here. Results are given in words; binding and its absence hold for the method and conditions named. Binding seen in cells or lysates may run through a third protein. Some entries that bind do so weakly or less than the wild type. For part of these data: Tags and fused reporters may be left off the sequences shown.

Consider “FLAG-SPOP, wild type (from UniProt O43791 1-374)”, for which the binding result in assay [1] is “binds”.

In the case of “FLAG-SPOP S222D (from UniProt O43791 1-374)”, the binding entry in [2] is “binds”.

On to “FLAG-SPOP S222A (from UniProt O43791 1-374)”, for which the binding result in assay [3] is listed as “binds”.

On to “GRK2 (G protein-coupled receptor kinase), endogenous (from UniProt P25098 1-689) (enzyme)”, for which the binding result in assay [4] was “binds”.

B1: alanine-serine-cysteine transporter 2 (ASCT2; SLC1A5), endogenous (protein, UniProt Q15758 1-541)
chain: T1 sequence
In the case of B1, the binding result in assay [5] and in [6] was “binds” each time.

B2: ASCT2 in HEK293 lysate (no ASCT2 plasmid named for the experiment) (protein, UniProt Q15758 1-541)
chain: T1 sequence
Consider B2, for which the binding entry in [7] was “no binding”; in assay [8] it was “binds”; in assay [9], “binds”; in assay [10] it was “no binding”.

B3: HA-ASCT2-3D (protein, UniProt Q15758 1-541)
chain: T1 sequence with S351D, S352D, S353D
With B3, in assay [11], the binding result is “binds”.

B4: ASCT2 as used in the pull-down with F-box proteins (Supplementary Fig. 2c) (protein, UniProt Q15758 1-541)
chain: T1 sequence
Regarding B4, the binding result in assay [12], in [13] and in assay [14] was “binds” each time.

B5: HA-ASCT2-3A (protein, UniProt Q15758 1-541)
chain: T1 sequence with S351A, S352A, S353A
On to B5, for which the binding result in assay [11] is “binds weakly”.

B6: HA-ASCT2, wild type (protein, UniProt Q15758 1-541)
chain: T1 sequence
Consider B6, for which the binding result in assay [15] is given as “no binding”; in assay [11], “binds”.

B7: HA-ASCT2ΔGTSSS (protein, UniProt Q15758)
chain: MVADPPRDSKGLAAAEPTANGGLALASIEDQGAAAGGYCGSRDQVRRCLRANLLVLLTVVAVVAGVALGLGVSGAGGALALGPERLSAFVFPGELLLRLLRMIILPLVVCSLIGGAASLDPGALGRLGAWALLFFLVTTLLASALGVGLALALQPGAASAAINASVGAAGSAENAPSKEVLDSFLDLARNIFPSNLVSAAFRSYSTTYEERNITGTRVKVPVGQEVEGMNILGLVVFAIVFGVALRKLGPEGELLIRFFNSFNEATMVLVSWIMWYAPVGIMFLVAGKIVEMEDVGLLFARLGKYILCCLLGHAIHGLLVLPLIYFLFTRKNPYRFLWGIVTPLATAFSATLPLMMKCVEENNGVAKHISRFILPIGATVNMDGAALFQCVAAVFIAQLSQQSLDFVKIITILVTATASSVGAAGIPAGGVLTLAIILEAVNLPVDHISLILAVDWLVDRSCTVLNVEGDALGAGLLQNYVDRTESRSTEPELIQVKSELPLDPLPVPTEEGNPLLKHYRGPAGDATVASEKESVM
Turning to B7, the binding entry in assay [11] was “no binding”.

Values taken from article PMC9156729.
